Laboratory results from PubChem BioAssay AID1671189 (National Center for Advancing Translational Sciences (NCATS), 2021).
About 70 (6%) of roughly 1,100 compounds were called active. Inconclusive results (about 22%) are left out. Calls come from the whole dose curve; as a rule, active = well fitted curve in the direction sought with a large enough effect; inconclusive = small, poorly fitted or top-dose-only effect, or another doubt; inactive = no such curve, though single readings can be large or run the other way. This is one part of the list.

Each compound was assayed against Polyunsaturated fatty acid lipoxygenase ALOX12 (Homo sapiens) (UniProt P18054) (assay: Confirmatory qHTS assay for inhibitors of human arachidonate 12S-lipoxygenase (ALOX12): Round 2). Settings: purified human 12-LOX, xylenol orange absorbance; series mostly up to 125 µM; activity change, negative = inhibition: at the top concentration.
Sequence of UniProt P18054 (P18054 whole entry, looked up): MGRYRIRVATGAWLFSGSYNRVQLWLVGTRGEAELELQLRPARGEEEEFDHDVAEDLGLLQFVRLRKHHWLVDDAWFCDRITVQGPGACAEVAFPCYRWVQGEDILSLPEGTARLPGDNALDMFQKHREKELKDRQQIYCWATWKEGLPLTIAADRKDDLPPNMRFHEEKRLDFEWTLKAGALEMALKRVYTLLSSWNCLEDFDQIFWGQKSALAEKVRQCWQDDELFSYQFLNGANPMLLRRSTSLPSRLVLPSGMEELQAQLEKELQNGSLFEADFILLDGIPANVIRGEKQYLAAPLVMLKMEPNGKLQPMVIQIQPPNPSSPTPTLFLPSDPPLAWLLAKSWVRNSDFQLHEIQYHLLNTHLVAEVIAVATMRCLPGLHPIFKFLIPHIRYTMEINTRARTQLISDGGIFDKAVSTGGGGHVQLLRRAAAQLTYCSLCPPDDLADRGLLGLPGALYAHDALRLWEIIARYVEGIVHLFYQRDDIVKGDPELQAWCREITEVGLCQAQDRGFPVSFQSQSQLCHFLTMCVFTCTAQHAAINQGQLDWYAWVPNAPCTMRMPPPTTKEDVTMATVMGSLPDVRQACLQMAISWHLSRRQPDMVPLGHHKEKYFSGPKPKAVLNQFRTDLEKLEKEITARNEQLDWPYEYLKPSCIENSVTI
Procedure, shortened: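 Purified human enzyme (150 nM) in 25 mM Hepes, 0.01% Triton X-100, pH 7.0, preincubated 15 min with compound, then 40 uM arachidonic acid for 30 min at room temperature. Hydroperoxide detected by Fe-XO, read as 573/405 nm absorbance ratio.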
% is set by controls: 0 for no effect and ±100 for the full control effect; potency is the fitted concentration of half-maximal effect.

Activity change, negative = inhibition, inactive:
CCc1nc2c(c(-c3ccc(OC)cc3)n1)CN([S+](=O)([O-])c1cccc(OC)c1)CC2 -23%, FC(F)(F)c1ccc(N2C3CCC2CN(CC2CCCC2)C3)cc1 -12.6%, CN(C)C[C@H]1O[C@@H](CO)[C@@H](O)[C@H]1N1CCN(c2ccc(F)cc2)CC1 -16.2% [at 64.5 µM], CN1CC(=O)N(C2CCCNC2)Cc2c1ncnc2N1CCc2ccccc2C1 (centres undefined) 2.77%, CN1CC(=O)N(C2CCCNCC2)Cc2c(NCC3CC3)ncnc21 (centres undefined) -7.12%, Cc1ccc(-c2cccc(CN)c2)c(C)c1 -12.4%, O=C1COCC2(CN1Cc1ccccc1)CN(c1cccnc1)C2 158% [at 64.5 µM], COc1cccc(C(=O)N2CCOC[C@H](Oc3ccccc3)C2)c1 16.7% [at 64.5 µM], CCOCCCNc1ncnc2c1CN(C1CCCNCC1)C(=O)CN2C (centres undefined) -3.49%, CC(C)Cc1ccc(S(=O)(=O)N2CCCC(Cn3cnc4cccnc43)C2)cc1 (centres undefined) 19.7% [at 64.5 µM], NCC(=O)N1Cc2ccccc2CC2(CCCCN2CC2CCOCC2)C1 (centres undefined) 2.3%, O=C1NCc2ccccc2CC12CCCN2CC1=CCCCC1 (centres undefined) -18.8%, c1cncc(CNc2cc(-c3cnc4ccccc4n3)c3cc[nH]c3n2)c1 -5.54% [at 64.5 µM], Cc1ccc(-c2cccc(CN3CCCC(c4nc5ccc(F)cc5c(=O)[nH]4)C3)c2)c(C)c1 (centres undefined) -35.5%, O=C1NCc2ccccc2CC12CCN(Cc1ccccc1Br)C2 (centres undefined) -5.61%, O=C1NC2(Cc3ccccc31)CN(C(=O)c1ccccc1)C2 -15.2%, O=C(N1CCCCC1)N1CCCC1c1nnc2n1CCNC2 (centres undefined) -18.6%, CC(C)NC(=O)N1CCC2(CC1)CN(C(=O)Cc1c[nH]c3ccccc13)CCO2 -6.28%, CNC(c1ccccc1)c1ccccc1 -18.7%, Cc1nc(N2CCC(NC(=O)CC3CCCCC3)CC2)cc(C(F)(F)F)n1 3.04% [at 64.5 µM], Cc1cccc(OCC(=O)N(C)C2CCc3nn(CC4CC4)c(=O)n3CC2)c1 (centres undefined) -12.3% [at 64.5 µM], COc1ccc(CC(=O)N2Cc3ccccc3CC3(CCCN(C)C3)C2)cc1 (centres undefined) -20.3%, O=C1NCc2ccccc2CC12CCN(Cc1ccc(O)cc1)CC2 -17.8%, COc1ccccc1-c1ccc(CN2CCCC(c3nc4ccc(F)cc4c(=O)[nH]3)C2)cc1 (centres undefined) -29.2%, COc1ccc(-c2nc(C3CC3)nc3c2CN([S+](=O)([O-])c2ccccc2)CC3)cc1 -25.8%, COc1ccc(CNc2ncnc3c2CN(C2CCCNC2)C(=O)CN3C)cc1 (centres undefined) -15.2%, CC(C)NC(=O)N1CNC(=O)C12CCN(C(=O)CN)CC2 -9.45%, C[C@]1(CO)[C@H]2Cc3sc(NC(=O)c4ccnc(Cl)c4)nc3[C@@H](CC(=O)O)[C@]2(C)CC[C@H]1O -0.718% [at 64.5 µM], CCCCc1ncc(-c2nccn2C2CCNC2)[nH]1 (centres undefined) 21.1% [at 64.5 µM], CC(C)NC(=O)N1CCCC(c2nnc3n2CCNC3)C1 (centres undefined) -24.8%, CC(=O)NCCC(=O)N1Cc2ccccc2CC2(CCCN2CC2CCNC2)C1 (centres undefined) -16.7%, CN1CC(=O)N(C2CCNCC2)Cc2c1ncnc2N1CCCC(O)C1 (centres undefined) -29.2%, CC(=O)N1CCC(c2nnc3n2CCNC3)CC1 -11.2%, Cc1cc(C(=O)NCc2ccncc2)c2c(C3CCNCC3)noc2n1 -14.7%, C[S+](=O)([O-])N1CCC(c2nnc3n2CCNC3)CC1 -6.19%, COc1cc(CN2CCCCC23Cc2ccccc2CNC3=O)ccc1F (centres undefined) -19.9%, O=[S+]([O-])(c1ccccc1)N1CC(Oc2ccc(F)c(F)c2)C1 -14.7%, O=C1NCc2ccccc2CC12CCN(Cc1cc(F)ccc1F)C2 (centres undefined) -21.8%, O=C(c1ccccc1)N1CCn2c(nn(-c3cccc(Cl)c3)c2=O)C1 -29%, CCC(=O)N1Cc2ccccc2CC2(CCN(CC3CCNCC3)CC2)C1 -11%, COc1ccc(C(=O)N2CCn3c(nnc3C3CCNCC3)C2)cc1 -15.7%, CC[C@@](N)(C(=O)O)c1ccc(C(=O)O)cc1 8.94%, Cn1nc(C2CCNC2)c2c(C(=O)NCc3ccncc3)cc(C3CC3)nc21 (centres undefined) -24.7%, COc1ccc(-c2noc([C@@H](C)NCC3CCCCC3)c2C(=O)O)cc1 -14.3% [at 64.5 µM], CCNc1ncnc2c1CN(C1CCCNCC1)C(=O)CN2C (centres undefined) -3.49%, Cc1ccc2nc(C3CCN(Cc4cccs4)CC3)[nH]c(=O)c2c1 -18.6%, CN1CC(=O)N(C2CCCNC2)Cc2c(NCCc3ccccc3F)ncnc21 (centres undefined) -12.1%, O=C(NC1CCN(c2cc(C(F)(F)F)ncn2)CC1)c1ccccc1 -9.8% [at 64.5 µM], CN1CC(=O)N(C2CCNC2)Cc2c(NC3CCN(Cc4ccccc4)CC3)ncnc21 (centres undefined) -13.3%, O=C(NC1CCCCC1)N1CCCC1c1nnc2n1CCNC2 (centres undefined) -17.1%, CCC(=O)N1Cc2ccccc2CC2(CCCN(CC3CCNC3)C2)C1 (centres undefined) -0.122%, O=C1NCc2ccccc2CC12CCN(Cc1ccnc3ccccc13)C2 (centres undefined) -25.8%

Potency, active:
O=C1NCc2ccccc2CC12CCN(Cc1ccc(Br)cc1)C2 (centres undefined) 17.5 µM, CC(=O)NC(c1ccco1)c1cc(Cl)c2cccnc2c1O (centres undefined) 4.85 µM
